Measurements reported in PubChem BioAssay AID493208 (National Center for Advancing Translational Sciences (NCATS), 2011).
Among all 44,000 compounds or so, about 340 (0.77%) were called active. About 5% were inconclusive and are not listed. Calls come from the whole dose curve; as a rule, active = well fitted inhibition curve with a large enough effect; inconclusive = small, poorly fitted or top-dose-only effect; inactive = flat fitted curve, though single readings scatter. The list shows a part of the results.

assay: Acumen qHTS Assay for Inhibitors of the mTORC1 Signaling Pathway in MEF (Tsc2-/-, p53-/-) Cells: Sytravon; conditions: phospho-rpS6 immunofluorescence/PI, 24 h; series mostly up to 38.3 µM; activity change, negative = inhibition: at the top concentration;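 note: plate controls were DMSO for no effect and rapamycin for full effect; nearly all actives have a fitted effect of over 50% in size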
How it was run: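 Tsc2-/-, p53-/- mouse embryonic fibroblasts (empty-vector line) exposed to compound 24 hrs at 37 C, fixed, immunostained for phospho-rpS6 and counterstained with propidium iodide. Acumen laser scanning gives % positive cells from Alexa 488/PI ratio, thresholded using 7.5 nM rapamycin; PI count gives viability.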

SMILES | activity change, negative = inhibition
CN(Cc1ccccc1)C(=O)CSc1nc2ccsc2c(=O)n1-c1ccc(F)cc1 | inactive: -1.86%
COc1cccc(NS(=O)(=O)c2ccc3[nH]cc(C(=O)NCCc4ccccc4)c(=O)c3c2)c1 | inactive: 0.0814%
COc1ccc(NC(=O)CCc2nnc3n(C)c(=O)c4sccc4n23)cc1Cl | inactive: 5.35%
CCn1cc(C(=O)NCCCN(CC(C)C)CC(C)C)c(=O)c2cc(S(=O)(=O)N(C)C3CCCCC3)ccc21 | inactive: -5.16%
COc1cccc(N2C(=O)N(Cc3ccc(C#N)cc3)c3ccccc3S2(=O)=O)c1 | inactive: -4.32%
CCc1ccccc1NC(=O)Cn1c(=O)n(CC2CCC(C(=O)NCCc3ccccc3)CC2)c(=O)c2ccccc21 (stereo unspecified) | inactive: -15.7%
CCC(=O)N1CCc2cc(Br)cc(S(=O)(=O)CCC(=O)Nc3ccc(C)c(C)c3)c21 | inactive: 0.214%
COc1ccc(-c2noc(-c3ccc(NCc4cccnc4)c([N+](=O)[O-])c3)n2)cc1 | inactive: -1%
O=C(NCc1ccccc1Cl)c1cnc2sc(N3CCOCC3)nn2c1=O | inactive: 3.88%
COc1ccc(C2=NS(=O)(=O)N(C)C(C(=O)NCc3ccccc3)=C2)cc1OC | inactive: 0.497%
COc1ccc(-c2cc(C(=O)Nc3ccn(Cc4ccc(C)cc4)n3)no2)cc1OC | inactive: -15%
CCc1ccc(NC(=O)C(=O)NCC(c2ccc3c(c2)OCO3)N2CCOCC2)cc1 (stereo unspecified) | inactive: -6.84%
Cc1ccc(S(=O)(=O)c2nc(-c3ccccc3Cl)oc2N2CCCCCC2)cc1 | inactive: -98.5%
CCS(=O)(=O)N1CCC(n2c(C)nc3cccnc32)CC1 | inactive: 1.07%
Cc1ccc(Cl)c(NC(=O)Nc2csc3c2CCCC3)c1 | inactive: -8.24%
CN1C(=O)c2ccccc2Sc2ccc(NC(=O)COc3ccccc3)cc21 | inactive: -18.8%
COc1cc2oc(=O)c(CC(=O)N3CCCCC3)c(C)c2cc1OC | inactive: 0.556%
COc1ccc(C(=O)/C=C/c2cn(CC(O)CN(CC(C)C)CC(C)C)c3ccccc23)cc1 (stereo unspecified) | inactive: -9.63%
CCOC(=O)c1nc(N2CCN(c3ccc(F)cc3)CC2)c2c(C)noc2n1 | inactive: 0.473%
CCCC(=O)N(c1ccc2oc(C)c(C(C)=O)c2c1)S(=O)(=O)c1ccc(C)cc1 | inactive: -3.51%
CCn1c(=O)n(-c2ccc(F)c(Cl)c2)c(=O)c2c3c(sc21)CN(C(C)=O)CC3 | inactive: 0.278%

SMILES | activity change, negative = inhibition
COc1cccc(C(=O)Nc2ccc(-c3nc4ccccc4s3)cc2Cl)c1 | inactive: 1.14%
COc1cccc(N2C(=O)CSC23C(=O)N(Cc2ccccc2)c2ccccc23)c1 (stereo unspecified) | inactive: 1.9%
Cc1ccc(C)c(CSc2cn(CC(=O)N3CCCCCC3)c3ccccc23)c1 | inactive: -0.55%
COc1ccc(NC(=O)CCCc2nnc3n(CCC(C)C)c(=O)c4sccc4n23)c(OC)c1 | inactive: 4.45%
COc1ccc(-c2csc3nc(-c4ccc(F)cc4)oc(=O)c23)cc1 | inactive: -2.1%
COCCNC(=O)c1ccc(-n2c(-c3ccccc3)cc3c2CCCCC3)cc1 | inactive: 0%
Cc1ccccc1-n1c(=O)c2c3c(sc2n2cnnc12)CCCC3 | inactive: -6.48%
COc1ccc(CNC(=O)C2CCN(c3nnc(-n4cccc4CNc4ccc(C)cc4)s3)CC2)c(OC)c1 | inactive: 4.07%
Cc1ccc(S(=O)(=O)c2nc(-c3cccc(C)c3)oc2N2CCCCC2)cc1 | inactive: -4.13%
O=S(=O)(c1ccc(F)cc1)N1CCC(n2c(C(F)(F)F)nc3cccnc32)CC1 | inactive: 0%
O=S(=O)(Nc1cccc(-c2ccc(N3CCCC3)nn2)c1)c1ccc(F)cc1F | inactive: 0.612%
COc1ccc(N2CCN(C(=O)CN(C)S(=O)(=O)c3cccs3)CC2)cc1 | inactive: -20%
COc1ccc(Cn2ccnc2SCC(=O)Nc2cc(C(F)(F)F)ccc2Cl)cc1 | inactive: 0.0302%
CCN(CC)C(=O)Cn1c(=O)cc(C)c2c(C)nn(C)c21 | inactive: -16.8%
CCOC(=O)c1ccccc1NC(=O)c1sc2ccccc2c1Cl | inactive: -5.21%
COc1ccc(-c2cn3nc(N4CCCC(C(=O)NCc5ccccc5C)C4)sc3n2)cc1 (stereo unspecified) | inactive: -0.125%
O=C(CN(CCc1ccccc1)S(=O)(=O)c1ccccc1)NCc1ccc(Cl)cc1 | inactive: 9.63%
Cc1ccc(Cl)cc1N1CCN(C(=O)c2cc(S(=O)(=O)N3CCCCCC3)cn2C)CC1 | inactive: -2.39%
Cc1cc(Cl)ccc1Nc1ncnc2onc(C)c12 | inactive: -3.37%
O=C(Nc1ccccc1Cl)C1CCN(c2nc3ccccc3[nH]2)CC1 | inactive: 6.81%
COc1cccc(NC(=O)CSCn2nnc3c(=O)[nH]c(Cc4ccc(F)cc4)nc32)c1 | inactive: 5.67%

SMILES | activity change, negative = inhibition
CN(Cc1ccc(F)cc1)S(=O)(=O)c1nnc(NC(=O)c2ccc(F)cc2)s1 | inactive: 0.68%
Fc1ccccc1OCc1nc(-c2ccc(-n3cccc3)cc2)no1 | inactive: 1.99%
COC(=O)c1ccc2c(c1)N(CC(=O)Nc1cccc(C(F)(F)F)c1)C(=O)c1ccccc1S2 | inactive: 0%
O=C(CSc1nc2c([nH]c3ccccc32)c(=O)n1-c1ccccc1F)Nc1ccccc1C(F)(F)F | inactive: -0.289%
COc1ccc(NC(=O)C2CCCN(S(=O)(=O)c3ccc4c(c3)CCCN4C(C)=O)C2)cc1 (stereo unspecified) | inactive: 1.32%
Cc1ccc2c(c1)CC(C)N2S(=O)(=O)c1nnc(NC(=O)c2ccccc2F)s1 (stereo unspecified) | inactive: 4.36%
CC(C)c1ccccc1NC(=O)CN(c1ccccc1)S(=O)(=O)N(C)C | inactive: 7.25%
O=C(NCCCN1CCN(c2ccc(F)cc2)CC1)c1sc2ncccc2c1-n1cccc1 | inactive: -12.7%
O=C(Cn1ccn(-c2cccc(Cl)c2)c(=O)c1=O)c1ccc(F)cc1 | inactive: 10.4%
Cc1ccc(NC(=O)CCS(=O)(=O)c2ccc(Br)cc2)c(C)c1 | inactive: -1.15%
CCOc1ccc(CNC(=O)c2[nH]c3ccccc3c2Sc2ccc(C)cc2)cc1 | inactive: -21%
CCOC(=O)c1cc(-c2ccccc2)n(CCC(=O)Nc2ccc(C)cc2Cl)c1C | inactive: -0.438%
COc1ccc(OC)c(S(=O)(=O)N2Cc3ccccc3CC2C(=O)Nc2ccc(Cl)cc2)c1 (stereo unspecified) | inactive: -20.5%
CCOc1ccc(-c2nn(-c3ccccc3)cc2C2NC(=O)NC(C)=C2C(=O)OC(C)C)cc1C (stereo unspecified) | inactive: 6.99%
Cc1cc(C)cc(NC(=O)CCS(=O)(=O)c2ccc3nc(C)sc3c2)c1 | inactive: 3.69%
Cc1ccc(C(=O)N2CCC(N3CCN(Cc4ccc(F)cc4)C(=O)C3=O)CC2)cc1 | inactive: -2.98%
O=C1C(c2ccc(F)cc2)N(Cc2ccccc2Cl)C(=O)CN1C1CCCCC1 (stereo unspecified) | inactive: 1.9%
Cc1ccc(-n2nc(CO)c(C(=O)NCCCCc3ccccc3)n2)cc1 | inactive: -2.57%
CCOC(=O)c1[nH]c(C)c(CCC(=O)NC(C)c2ccccc2)c1C (stereo unspecified) | inactive: 2.69%
